Results are given in words; binding and its absence hold for the method and conditions named. For some assays here: In cells and extracts the contact can be indirect. Some entries that bind do so weakly or less than the wild type. For some assays here: Where a sequence is shown, tags or fusion partners need not be part of it.
Assays:
[1] = target: T1, GST-LRRC4-D fusion protein (D domain of LRRC4, residues 499-513) (human) (UniProt Q9HBW1); experiment: pull-down; GST fusion (D domain or CD domain) from bacterial lysate on glutathione-Sepharose 4B beads at 4 °C, washed, then incubated with bacterial cell lysates containing ERK1/2 or LRRC4; buffer 20 mmol/L Tris-Cl, 150 mmol/L NaCl, 2 mmol/L EDTA, 0.5% NP40, pH 7.5; only the target purified
T1 sequence: RVPKQVAVPATDTTD

By UniProt entry, the sequences of proteins in these tests, tags left out.
UniProt P28482: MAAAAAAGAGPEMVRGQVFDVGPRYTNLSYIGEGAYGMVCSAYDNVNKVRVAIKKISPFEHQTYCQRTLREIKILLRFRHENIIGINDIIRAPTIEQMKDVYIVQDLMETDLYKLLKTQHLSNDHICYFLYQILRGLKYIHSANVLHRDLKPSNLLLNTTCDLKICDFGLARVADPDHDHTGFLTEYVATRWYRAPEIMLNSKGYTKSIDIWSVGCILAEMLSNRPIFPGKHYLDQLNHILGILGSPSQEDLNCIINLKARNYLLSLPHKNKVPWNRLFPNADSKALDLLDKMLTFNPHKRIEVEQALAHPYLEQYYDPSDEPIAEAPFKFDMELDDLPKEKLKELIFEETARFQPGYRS
UniProt P27361: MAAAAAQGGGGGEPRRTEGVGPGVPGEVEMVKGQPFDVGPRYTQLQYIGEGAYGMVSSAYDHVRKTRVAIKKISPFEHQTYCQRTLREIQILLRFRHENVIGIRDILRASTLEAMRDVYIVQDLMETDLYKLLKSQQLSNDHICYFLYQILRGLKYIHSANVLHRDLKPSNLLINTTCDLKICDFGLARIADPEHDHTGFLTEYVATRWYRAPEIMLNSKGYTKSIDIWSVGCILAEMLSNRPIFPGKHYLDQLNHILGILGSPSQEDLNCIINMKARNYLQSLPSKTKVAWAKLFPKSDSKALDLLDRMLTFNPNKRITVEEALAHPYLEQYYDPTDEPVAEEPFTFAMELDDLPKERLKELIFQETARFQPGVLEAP

[2] = target: T2, Leucine-rich repeat containing 4 (LRRC4), full-length, expressed from pcDNA3.1(+)-LRRC4 (human) (UniProt Q9HBW1); experiment: co-IP; HEK293 cells transfected with LRRC4 expression vector; lysates in RIPA buffer, antibody overnight at 4 °C, protein A or G Sepharose beads, washed with RIPA buffer containing 150 mM NaCl; western blot
T2 sequence: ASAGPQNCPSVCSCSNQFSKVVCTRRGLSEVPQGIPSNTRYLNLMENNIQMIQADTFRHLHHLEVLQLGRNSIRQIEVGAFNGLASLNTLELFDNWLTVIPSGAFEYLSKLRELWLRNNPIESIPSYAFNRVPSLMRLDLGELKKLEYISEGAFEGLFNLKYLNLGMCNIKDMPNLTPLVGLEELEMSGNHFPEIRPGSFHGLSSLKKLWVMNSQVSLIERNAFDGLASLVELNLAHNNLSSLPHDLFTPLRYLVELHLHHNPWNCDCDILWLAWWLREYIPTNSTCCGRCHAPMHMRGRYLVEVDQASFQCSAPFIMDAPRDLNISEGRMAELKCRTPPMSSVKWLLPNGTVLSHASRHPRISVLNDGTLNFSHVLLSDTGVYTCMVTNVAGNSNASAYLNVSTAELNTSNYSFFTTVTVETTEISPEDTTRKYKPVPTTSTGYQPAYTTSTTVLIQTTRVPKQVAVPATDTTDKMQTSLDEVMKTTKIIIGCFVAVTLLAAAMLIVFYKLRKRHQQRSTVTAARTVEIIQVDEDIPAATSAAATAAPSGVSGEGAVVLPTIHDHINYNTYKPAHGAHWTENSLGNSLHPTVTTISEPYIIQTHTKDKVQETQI

[3] = target: ERK2, endogenous in U251 cells (human (endogenous in U251)) (UniProt P28482); experiment: co-IP; U251 cells transfected with GFP or GFP-LRRC4 (different amounts); MEK1/2 with ERK1/2 in the presence of LRRC4
[4] = target: ERK1, endogenous in U251 cells (human (endogenous in U251)) (UniProt P27361); experiment: as above
[5] = target: ERK2, endogenous in HEK293 cells (human (endogenous in HEK293)) (UniProt P28482); experiment: co-IP; HEK293 cells transfected with LRRC4 expression vector; lysates in RIPA buffer, antibody overnight at 4 °C, protein A or G Sepharose beads, washed with RIPA buffer containing 150 mM NaCl; western blot
[6] = target: ERK1, endogenous in HEK293 cells (human (endogenous in HEK293)) (UniProt P27361); experiment: as above
[7] = target: Purified ERK2 (of purified ERK1/2) (UniProt P28482); experiment: co-IP; purified MEK1/2 and ERK1/2 mixed in vitro with increasing concentration of purified LRRC4; both purified
[8] = target: Purified ERK1 (of purified ERK1/2) (UniProt P27361); experiment: as above

Q: Which binding [1] does the source give for “Wild-type ERK1, in bacterial cell lysate (from UniProt P27361 1-379)” here?
A: binds

Q: With “Wild-type ERK2, in bacterial cell lysate (from UniProt P28482 1-360)” as the molecule, how does the binding [1] read?
A: binds

Q: With “ERK2, endogenous in HEK293 cells (from UniProt P28482 1-360)” as the molecule, how does the binding [2] read?
A: binds

Q: With “ERK1, endogenous in HEK293 cells (from UniProt P27361 1-379)” as the molecule, how does the binding [2] read?
A: binds

B1: GFP-LRRC4, expressed in U251 cells (protein, UniProt Q9HBW1 39-653)
chain: ASAGPQNCPSVCSCSNQFSKVVCTRRGLSEVPQGIPSNTRYLNLMENNIQMIQADTFRHLHHLEVLQLGRNSIRQIEVGAFNGLASLNTLELFDNWLTVIPSGAFEYLSKLRELWLRNNPIESIPSYAFNRVPSLMRLDLGELKKLEYISEGAFEGLFNLKYLNLGMCNIKDMPNLTPLVGLEELEMSGNHFPEIRPGSFHGLSSLKKLWVMNSQVSLIERNAFDGLASLVELNLAHNNLSSLPHDLFTPLRYLVELHLHHNPWNCDCDILWLAWWLREYIPTNSTCCGRCHAPMHMRGRYLVEVDQASFQCSAPFIMDAPRDLNISEGRMAELKCRTPPMSSVKWLLPNGTVLSHASRHPRISVLNDGTLNFSHVLLSDTGVYTCMVTNVAGNSNASAYLNVSTAELNTSNYSFFTTVTVETTEISPEDTTRKYKPVPTTSTGYQPAYTTSTTVLIQTTRVPKQVAVPATDTTDKMQTSLDEVMKTTKIIIGCFVAVTLLAAAMLIVFYKLRKRHQQRSTVTAARTVEIIQVDEDIPAATSAAATAAPSGVSGEGAVVLPTIHDHINYNTYKPAHGAHWTENSLGNSLHPTVTTISEPYIIQTHTKDKVQETQI
Q: With B1 as the molecule, how does the binding [3] read?
A: binds

Q: And the binding [4]?
A: binds

B2: Leucine-rich repeat containing 4 (LRRC4), full-length, expressed from pcDNA3.1(+)-LRRC4 (protein, UniProt Q9HBW1 39-653)
chain: ASAGPQNCPSVCSCSNQFSKVVCTRRGLSEVPQGIPSNTRYLNLMENNIQMIQADTFRHLHHLEVLQLGRNSIRQIEVGAFNGLASLNTLELFDNWLTVIPSGAFEYLSKLRELWLRNNPIESIPSYAFNRVPSLMRLDLGELKKLEYISEGAFEGLFNLKYLNLGMCNIKDMPNLTPLVGLEELEMSGNHFPEIRPGSFHGLSSLKKLWVMNSQVSLIERNAFDGLASLVELNLAHNNLSSLPHDLFTPLRYLVELHLHHNPWNCDCDILWLAWWLREYIPTNSTCCGRCHAPMHMRGRYLVEVDQASFQCSAPFIMDAPRDLNISEGRMAELKCRTPPMSSVKWLLPNGTVLSHASRHPRISVLNDGTLNFSHVLLSDTGVYTCMVTNVAGNSNASAYLNVSTAELNTSNYSFFTTVTVETTEISPEDTTRKYKPVPTTSTGYQPAYTTSTTVLIQTTRVPKQVAVPATDTTDKMQTSLDEVMKTTKIIIGCFVAVTLLAAAMLIVFYKLRKRHQQRSTVTAARTVEIIQVDEDIPAATSAAATAAPSGVSGEGAVVLPTIHDHINYNTYKPAHGAHWTENSLGNSLHPTVTTISEPYIIQTHTKDKVQETQI
Q: B2 was tested. Which binding [5] did it give?
A: binds

Q: What about the binding [6] of the same molecule?
A: binds

B3: Purified LRRC4 protein (protein, UniProt Q9HBW1 39-653)
chain: ASAGPQNCPSVCSCSNQFSKVVCTRRGLSEVPQGIPSNTRYLNLMENNIQMIQADTFRHLHHLEVLQLGRNSIRQIEVGAFNGLASLNTLELFDNWLTVIPSGAFEYLSKLRELWLRNNPIESIPSYAFNRVPSLMRLDLGELKKLEYISEGAFEGLFNLKYLNLGMCNIKDMPNLTPLVGLEELEMSGNHFPEIRPGSFHGLSSLKKLWVMNSQVSLIERNAFDGLASLVELNLAHNNLSSLPHDLFTPLRYLVELHLHHNPWNCDCDILWLAWWLREYIPTNSTCCGRCHAPMHMRGRYLVEVDQASFQCSAPFIMDAPRDLNISEGRMAELKCRTPPMSSVKWLLPNGTVLSHASRHPRISVLNDGTLNFSHVLLSDTGVYTCMVTNVAGNSNASAYLNVSTAELNTSNYSFFTTVTVETTEISPEDTTRKYKPVPTTSTGYQPAYTTSTTVLIQTTRVPKQVAVPATDTTDKMQTSLDEVMKTTKIIIGCFVAVTLLAAAMLIVFYKLRKRHQQRSTVTAARTVEIIQVDEDIPAATSAAATAAPSGVSGEGAVVLPTIHDHINYNTYKPAHGAHWTENSLGNSLHPTVTTISEPYIIQTHTKDKVQETQI
Q: Which results are given for B3?
A: binding [7]: binds; binding [8]: binds

B4: LRRC4-ΔD mutant (deletion of the D domain in the full-length LRRC4 protein) (protein, UniProt Q9HBW1)
chain: ASAGPQNCPSVCSCSNQFSKVVCTRRGLSEVPQGIPSNTRYLNLMENNIQMIQADTFRHLHHLEVLQLGRNSIRQIEVGAFNGLASLNTLELFDNWLTVIPSGAFEYLSKLRELWLRNNPIESIPSYAFNRVPSLMRLDLGELKKLEYISEGAFEGLFNLKYLNLGMCNIKDMPNLTPLVGLEELEMSGNHFPEIRPGSFHGLSSLKKLWVMNSQVSLIERNAFDGLASLVELNLAHNNLSSLPHDLFTPLRYLVELHLHHNPWNCDCDILWLAWWLREYIPTNSTCCGRCHAPMHMRGRYLVEVDQASFQCSAPFIMDAPRDLNISEGRMAELKCRTPPMSSVKWLLPNGTVLSHASRHPRISVLNDGTLNFSHVLLSDTGVYTCMVTNVAGNSNASAYLNVSTAELNTSNYSFFTTVTVETTEISPEDTTRKYKPVPTTSTGYQPAYTTSTTVLIQTTKMQTSLDEVMKTTKIIIGCFVAVTLLAAAMLIVFYKLRKRHQQRSTVTAARTVEIIQVDEDIPAATSAAATAAPSGVSGEGAVVLPTIHDHINYNTYKPAHGAHWTENSLGNSLHPTVTTISEPYIIQTHTKDKVQETQI
Q: For B4, which binding [6] is on record?
A: no binding

Reference: PMC5123285
